Test results: patent US20170319711A1 (Pfizer, published 2017)

Legend:
[1] = target: T1, Human 5T4 antigen on cells (human, UniProt Q13641 32-420); test: cell-based or functional assay
T1 sequence: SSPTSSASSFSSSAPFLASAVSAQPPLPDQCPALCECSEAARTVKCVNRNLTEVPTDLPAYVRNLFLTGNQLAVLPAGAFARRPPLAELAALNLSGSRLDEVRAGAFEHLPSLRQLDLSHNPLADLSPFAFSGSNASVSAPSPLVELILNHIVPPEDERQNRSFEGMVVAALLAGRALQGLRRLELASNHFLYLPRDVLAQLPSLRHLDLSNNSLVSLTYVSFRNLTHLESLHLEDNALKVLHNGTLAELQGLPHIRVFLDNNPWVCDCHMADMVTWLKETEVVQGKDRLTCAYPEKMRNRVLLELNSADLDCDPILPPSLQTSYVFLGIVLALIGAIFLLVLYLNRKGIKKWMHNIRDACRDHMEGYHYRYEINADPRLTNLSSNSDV

[2] = target: T1, Human 5T4 antigen on cells; test: flow cytometry, 10 ug/mL, A431 cells
Procedure: (§1) Cells expressing the 5T4 antigen, and the negative control Raji cells, are plated at a density of 500,000 cells/well on non-tissue culture treated 96 well plates and kept on ice. Dilutions of the A1 and A1-IgG4 antibodies or A1-mcMMAF ADC are made in 3% bovine serum albumin BSA in Dulbecco's phosphate buffered saline (DPBS) and added to the plate at a final concentration of 10 μg/mL. The plates are then incubated on ice for 1 hour followed by 2 washes. The secondary antibody, PE (phycoerythrin) conjugated Goat Anti-Human IgG Fc is added to the wells. After 30 minutes of incubation at 4 C, the mean fluorescence intensity is then measured using a flow cytometer.

[3] = target: T1, Human 5T4 antigen on cells; test: cell-based or functional assay; remark: listed apart in the source
[4] = target: T1, Human 5T4 antigen on cells; test: flow cytometry, 10 ug/mL, MDAMB468 cells
Procedure: as §1

[5] = target: T1, Human 5T4 antigen on cells; test: flow cytometry, 10 ug/mL, MDAMD361-DYT2 cells
Procedure: as §1

[6] = target: T1, Human 5T4 antigen on cells; test: flow cytometry, 10 ug/mL, PC3mm2 cells
Procedure: as §1

B1: A1-mcMMAF ADC (other)
heavy: EVQLVESGGGLVQPGGSLRLSCAASGYTFTNFGMNWVRQAPGKGLEWVAWINTNTGEPRYAEEFKGRFTISRDNAKNSLYLQMNSLRAEDTAVYYCARDWDGAYFFDYWGQGTLVTVSS[human IgG1 constant region not printed]
light: DIQMTQSPSSLSASVGDRVTITCKASQSVSNDVAWYQQKPGKAPKLLIYFATNRYTGVPSRFSGSGYGTDFTLTISSLQPEDFATYYCQQDYSSPWTFGQGTKVEIKRTVAAPSVFIFPPSDEQLKSGTASVVCLLNNFYPREAKVQWKVDNALQSGNSQESVTEQDSKDSTYSLSSTLTLSKADYEKHKVYACEVTHQGLSSPVTKSFNRGEC
modifications: maleimidocaproyl-monomethylauristatin F (mc-MMAF) on reduced Cys residues, positions not given
notes: also called 5T4-A1 antibody drug conjugate
**Q.** How did the “IC50 of cell viability (MTS) after ten days, 37622a primary lung tumor cells” value [1] turn out when B1 was run?
**A.** 504 ng Ab/ml

**Q.** And the “Mean Fluorescent Intensity” value [2]?
**A.** 3400

**Q.** And the “IC50 of cell viability after four days, MDAMB361DYT2 cells” value [3]?
**A.** 104 ng Ab/ml

**Q.** What about the “IC50 of cell viability after four days, MDAMB435/5T4 cells” value [3] of the same binder?
**A.** 1.3 ng Ab/ml

**Q.** What about the “IC50 of cell viability after four days, MDAMB468 cells” value [3] of the same binder?
**A.** 534 ng Ab/ml

**Q.** And the “Mean Fluorescent Intensity” value [4]?
**A.** 2800

**Q.** What about the “Mean Fluorescent Intensity” value [5] of the same binder?
**A.** 6900

**Q.** What about the “Mean Fluorescent Intensity” value [6] of the same binder?
**A.** 2700

B2: A3-vcMMAE (other)
heavy: EVQLVESGGGLVQPKGSLKLSCAASGFTFNTYAMNWVRQAPGKGLEWVARIRSKSNNYATYYADSVKDRFTISRDDSQSMLYLQMNNLKTEDTAMYYCVRQWDYDVRAMNYWGQGTLVTVSS[human IgG1 constant region not printed]
light: DIVMTQSHIFMSTSVGDRVSITCKASQDVDTAVAWYQQKPGQSPKLLIYWASTRLTGVPDRFTGSGSGTDFTLTISNVQSEDLADYFCQQYSSYPYTFGQGTKLEIKRTVAAPSVFIFPPSDEQLKSGTASVVCLLNNFYPREAKVQWKVDNALQSGNSQESVTEQDSKDSTYSLSSTLTLSKADYEKHKVYACEVTHQGLSSPVTKSFNRGEC
modifications: mc-Val-Cit-PABA-MMAE, residues not stated
**Q.** Which results are given for B2?
**A.** IC50 of cell viability (MTS) after ten days, 37622a primary lung tumor cells [1]: 78.1 ng Ab/ml; IC50 of cell viability after four days, MDAMB361DYT2 cells [3]: 86.8 ng Ab/ml; IC50 of cell viability after four days, MDAMB435/5T4 cells [3]: 3.5 ng Ab/ml; IC50 of cell viability after four days, MDAMB468 cells [3]: 161 ng Ab/ml

B3: A1-vcMMAE (other)
heavy: EVQLVESGGGLVQPGGSLRLSCAASGYTFTNFGMNWVRQAPGKGLEWVAWINTNTGEPRYAEEFKGRFTISRDNAKNSLYLQMNSLRAEDTAVYYCARDWDGAYFFDYWGQGTLVTVSS[human IgG1 constant region not printed]
light: DIQMTQSPSSLSASVGDRVTITCKASQSVSNDVAWYQQKPGKAPKLLIYFATNRYTGVPSRFSGSGYGTDFTLTISSLQPEDFATYYCQQDYSSPWTFGQGTKVEIKRTVAAPSVFIFPPSDEQLKSGTASVVCLLNNFYPREAKVQWKVDNALQSGNSQESVTEQDSKDSTYSLSSTLTLSKADYEKHKVYACEVTHQGLSSPVTKSFNRGEC
modifications: mc-Val-Cit-PABA-MMAE on reduced Cys residues, positions not given
**Q.** How did the “IC50 of cell viability (MTS) after ten days, 37622a primary lung tumor cells” value [1] turn out when B3 was run?
**A.** 443 ng Ab/ml

**Q.** What about the “IC50 of cell viability after four days, MDAMB361DYT2 cells” value [3] of the same binder?
**A.** 158 ng Ab/ml

**Q.** What about the “IC50 of cell viability after four days, MDAMB435/5T4 cells” value [3] of the same binder?
**A.** 6.8 ng Ab/ml

**Q.** What about the “IC50 of cell viability after four days, MDAMB468 cells” value [3] of the same binder?
**A.** 7670 ng Ab/ml

B4: A3-mcMMAF (other)
heavy: EVQLVESGGGLVQPKGSLKLSCAASGFTFNTYAMNWVRQAPGKGLEWVARIRSKSNNYATYYADSVKDRFTISRDDSQSMLYLQMNNLKTEDTAMYYCVRQWDYDVRAMNYWGQGTLVTVSS[human IgG1 constant region not printed]
light: DIVMTQSHIFMSTSVGDRVSITCKASQDVDTAVAWYQQKPGQSPKLLIYWASTRLTGVPDRFTGSGSGTDFTLTISNVQSEDLADYFCQQYSSYPYTFGQGTKLEIKRTVAAPSVFIFPPSDEQLKSGTASVVCLLNNFYPREAKVQWKVDNALQSGNSQESVTEQDSKDSTYSLSSTLTLSKADYEKHKVYACEVTHQGLSSPVTKSFNRGEC
modifications: mc-MMAF, residues not stated
**Q.** Which results are given for B4?
**A.** IC50 of cell viability (MTS) after ten days, 37622a primary lung tumor cells [1]: 77.2 ng Ab/ml; IC50 of cell viability after four days, MDAMB361DYT2 cells [3]: 31 ng Ab/ml; IC50 of cell viability after four days, MDAMB435/5T4 cells [3]: 0.3 ng Ab/ml; IC50 of cell viability after four days, MDAMB468 cells [3]: 27.7 ng Ab/ml
